# The supplement of paper PMC8728848
# The other results are listed elsewhere or left out.
# Columns and labels:
# Experiment in all cases: glycan array binding signal (z-score within array); higher = stronger binding
# Conditions in all cases: glycan notation: IUPAC condensed, linker removed
# [1] = molecular target: Gal(b1-3)[Fuc(a1-4)]GlcNAc(b1-3)Gal(b1-4)GlcNAc
# In short: (§1)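 From the Consortium for Functional Glycomics database, 3228 arrays were curated, keeping only those whose protein sequence was available. Binding is given as a within-array Z-score averaged across arrays sharing a protein sequence and across linkers. Negative Z-scores can be read as non-binding.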
# [2] = molecular target: Gal(b1-3)[Fuc(a1-4)]GlcNAc(b1-3)Gal(b1-4)[Fuc(a1-3)]GlcNAc
# In short: as §1
# [3] = molecular target: Gal(b1-3)[GlcNAc(b1-6)]GalNAc
# In short: as §1
# [4] = molecular target: Gal(b1-3)[Neu5Ac(a2-6)]GalNAc
# In short: as §1
# [5] = molecular target: Gal(b1-3)[Neu5Ac(a2-6)]GlcNAc(b1-6)Gal(b1-4)Glc
# In short: as §1
# [6] = molecular target: Gal(b1-3)[Neu5Ac(b2-6)]GalNAc
# In short: as §1
# Gal(b1-4)Gal = molecular target: Gal(b1-4)Gal
# In short: as §1
# [7] = molecular target: Gal(b1-4)GalNAc(a1-3)[Fuc(a1-2)]Gal(b1-4)GlcNAc
# In short: as §1
# [8] = molecular target: Gal(b1-4)GalNAc(b1-3)[Fuc(a1-2)]Gal(b1-4)GlcNAc
# In short: as §1
# Gal(b1-4)Glc = molecular target: Gal(b1-4)Glc
# In short: as §1
# Gal(b1-4)Glc6S = molecular target: Gal(b1-4)Glc6S
# In short: as §1
# Gal(b1-4)GlcNAc = molecular target: Gal(b1-4)GlcNAc
# In short: as §1
# [9] = molecular target: Gal(b1-4)GlcNAc(a1-6)Gal(b1-4)GlcNAc
# In short: as §1
# Gal(b1-4)GlcNAc(b1-2)Man = molecular target: Gal(b1-4)GlcNAc(b1-2)Man
# In short: as §1
# [10] = molecular target: Gal(b1-4)GlcNAc(b1-2)Man(a1-3)Man(b1-4)GlcNAc(b1-4)GlcNAc
# In short: as §1
# [11] = molecular target: Gal(b1-4)GlcNAc(b1-2)Man(a1-3)[Gal(b1-4)GlcNAc(b1-2)Man(a1-6)]Man(b1-4)GlcNAc(b1-4)GlcNAc
# In short: as §1
# [12] = molecular target: Gal(b1-4)GlcNAc(b1-2)Man(a1-3)[Gal(b1-4)GlcNAc(b1-2)Man(a1-6)]Man(b1-4)GlcNAc(b1-4)[Fuc(a1-6)]GlcNAc
# In short: as §1
# [13] = molecular target: Gal(b1-4)GlcNAc(b1-2)Man(a1-3)[Gal(b1-4)GlcNAc(b1-2)][GlcNAc(b1-4)]Man(b1-4)GlcNAc(b1-4)GlcNAc
# In short: as §1
# [14] = molecular target: Gal(b1-4)GlcNAc(b1-2)Man(a1-3)[GlcNAc(b1-2)Man(a1-6)]Man(b1-4)GlcNAc(b1-4)GlcNAc
# In short: as §1
# [15] = molecular target: Gal(b1-4)GlcNAc(b1-2)Man(a1-3)[Man(a1-6)]Man(b1-4)GlcNAc(b1-4)GlcNAc
# In short: as §1
# [16] = molecular target: Gal(b1-4)GlcNAc(b1-2)Man(a1-6)Man(b1-4)GlcNAc(b1-4)GlcNAc
# In short: as §1
# [17] = molecular target: Gal(b1-4)GlcNAc(b1-2)Man(a1-6)[GlcNAc(b1-2)Man(a1-3)]Man(b1-4)GlcNAc(b1-4)GlcNAc
# In short: as §1
# [18] = molecular target: Gal(b1-4)GlcNAc(b1-2)Man(a1-6)[Man(a1-3)]Man(b1-4)GlcNAc(b1-4)GlcNAc
# In short: as §1
# [19] = molecular target: Gal(b1-4)GlcNAc(b1-2)[Gal(b1-4)GlcNAc(b1-4)]Man(a1-3)[Gal(b1-4)GlcNAc(b1-2)Man(a1-6)]Man(b1-4)GlcNAc(b1-4)GlcNAc
# In short: as §1
# [20] = molecular target: Gal(b1-4)GlcNAc(b1-2)[Gal(b1-4)GlcNAc(b1-4)]Man(a1-3)[Gal(b1-4)GlcNAc(b1-2)[Gal(b1-4)GlcNAc(b1-6)]Man(a1-6)]Man(b1-4)GlcNAc(b1-4)GlcNAc
# In short: as §1
# [21] = molecular target: Gal(b1-4)GlcNAc(b1-2)[Gal(b1-4)GlcNAc(b1-4)]Man(a1-3)[GlcNAc(b1-4)][Gal(b1-4)GlcNAc(b1-2)Man(a1-6)]Man(b1-4)GlcNAc(b1-4)GlcNAc
# In short: as §1
# [22] = molecular target: Gal(b1-4)GlcNAc(b1-2)[Gal(b1-4)GlcNAc(b1-4)]Man(a1-3)[GlcNAc(b1-4)][Gal(b1-4)GlcNAc(b1-2)[Gal(b1-4)GlcNAc(b1-6)]Man(a1-6)]Man(b1-4)GlcNAc(b1-4)GlcNAc
# In short: as §1
# [23] = molecular target: Gal(b1-4)GlcNAc(b1-2)[Gal(b1-4)GlcNAc(b1-6)]Man(a1-6)[Gal(b1-4)GlcNAc(b1-2)Man(a1-3)]Man(b1-4)GlcNAc(b1-4)GlcNAc
# In short: as §1
# [24] = molecular target: Gal(b1-4)GlcNAc(b1-2)[Gal(b1-4)GlcNAc(b1-6)]Man(a1-6)[GlcNAc(b1-4)][Gal(b1-4)GlcNAc(b1-2)Man(a1-3)]Man(b1-4)GlcNAc(b1-4)GlcNAc
# In short: as §1
# [25] = molecular target: Gal(b1-4)GlcNAc(b1-3)Gal(b1-3)GlcNAc
# In short: as §1
# [26] = molecular target: Gal(b1-4)GlcNAc(b1-3)Gal(b1-4)Glc
# In short: as §1
# [27] = molecular target: Gal(b1-4)GlcNAc(b1-3)Gal(b1-4)GlcNAc
# In short: as §1
# [28] = molecular target: Gal(b1-4)GlcNAc(b1-3)Gal(b1-4)GlcNAc(b1-3)Gal(b1-4)GlcNAc
# In short: as §1
# [29] = molecular target: Gal(b1-4)GlcNAc(b1-3)Gal(b1-4)[Fuc(a1-3)GlcNAc(b1-6)]Gal(b1-4)Glc
# In short: as §1
# [30] = molecular target: Gal(b1-4)GlcNAc(b1-3)Gal(b1-4)[Fuc(a1-3)]GlcNAc(b1-3)Gal(b1-4)[Fuc(a1-3)]GlcNAc
# In short: as §1
# [31] = molecular target: Gal(b1-4)GlcNAc(b1-3)GalNAc
# In short: as §1
# [32] = molecular target: Gal(b1-4)GlcNAc(b1-3)[Gal(b1-4)GlcNAc(b1-6)]Gal(b1-4)GlcNAc
# In short: as §1
# [33] = molecular target: Gal(b1-4)GlcNAc(b1-3)[Gal(b1-4)GlcNAc(b1-6)]GalNAc
# In short: as §1
# [34] = molecular target: Gal(b1-4)GlcNAc(b1-3)[GlcNAc(b1-6)]Gal(b1-4)GlcNAc
# In short: as §1
# [35] = molecular target: Gal(b1-4)GlcNAc(b1-6)Gal(b1-4)GlcNAc
# In short: as §1
# [36] = molecular target: Gal(b1-4)GlcNAc(b1-6)GalNAc
# In short: as §1
# [37] = molecular target: Gal(b1-4)GlcNAc(b1-6)[Gal(b1-3)]GalNAc
# In short: as §1
# Gal(b1-6)Gal = molecular target: Gal(b1-6)Gal
# In short: as §1
# Gal3S(b1-3)GalNAc = molecular target: Gal3S(b1-3)GalNAc
# In short: as §1
# Gal3S(b1-3)GlcNAc = molecular target: Gal3S(b1-3)GlcNAc
# In short: as §1
binder,measurement,setting,value
"RS2L (Ralstonia solanacearum), B5RXL5_RALSO (protein) MAQQGVFTLPANTSFGVTAFANAANTQTIQVLVDNVVKATFTGSGTSDKLLGSQVLNSGSGAIKIQVSVNGKPSDLVSNQTILANKLNFAMVGSEDGTDNDYNDGIAVLNWPLG",glycan array binding signal (z-score),[1],-0.222
same,glycan array binding signal (z-score),[2],0.032
same,glycan array binding signal (z-score),[3],-0.248
same,glycan array binding signal (z-score),[4],-0.253
same,glycan array binding signal (z-score),[5],-0.242
same,glycan array binding signal (z-score),[6],-0.249
same,glycan array binding signal (z-score),Gal(b1-4)Gal,-0.242
same,glycan array binding signal (z-score),[7],-0.243
same,glycan array binding signal (z-score),[8],-0.243
same,glycan array binding signal (z-score),Gal(b1-4)Glc,-0.249
same,glycan array binding signal (z-score),Gal(b1-4)Glc6S,-0.246
same,glycan array binding signal (z-score),Gal(b1-4)GlcNAc,-0.248
same,glycan array binding signal (z-score),[9],-0.25
same,glycan array binding signal (z-score),Gal(b1-4)GlcNAc(b1-2)Man,-0.23
same,glycan array binding signal (z-score),[10],-0.231
same,glycan array binding signal (z-score),[11],-0.241
same,glycan array binding signal (z-score),[12],-0.168
same,glycan array binding signal (z-score),[13],-0.229
same,glycan array binding signal (z-score),[14],-0.172
same,glycan array binding signal (z-score),[15],2.9
same,glycan array binding signal (z-score),[16],-0.226
same,glycan array binding signal (z-score),[17],-0.237
same,glycan array binding signal (z-score),[18],2.54
same,glycan array binding signal (z-score),[19],-0.191
same,glycan array binding signal (z-score),[20],-0.066
same,glycan array binding signal (z-score),[21],-0.252
same,glycan array binding signal (z-score),[22],-0.251
same,glycan array binding signal (z-score),[23],0.035
same,glycan array binding signal (z-score),[24],-0.226
same,glycan array binding signal (z-score),[25],-0.246
same,glycan array binding signal (z-score),[26],-0.246
same,glycan array binding signal (z-score),[27],-0.251
same,glycan array binding signal (z-score),[28],-0.235
same,glycan array binding signal (z-score),[29],-0.257
same,glycan array binding signal (z-score),[30],-0.177
same,glycan array binding signal (z-score),[31],-0.254
same,glycan array binding signal (z-score),[32],-0.26
same,glycan array binding signal (z-score),[33],-0.246
same,glycan array binding signal (z-score),[34],-0.243
same,glycan array binding signal (z-score),[35],-0.255
same,glycan array binding signal (z-score),[36],-0.234
same,glycan array binding signal (z-score),[37],-0.248
same,glycan array binding signal (z-score),Gal(b1-6)Gal,-0.231
same,glycan array binding signal (z-score),Gal3S(b1-3)GalNAc,-0.229
same,glycan array binding signal (z-score),Gal3S(b1-3)GlcNAc,-0.233
